Assay results published in PubChem BioAssay AID1030 (National Center for Advancing Translational Sciences (NCATS), 2008).
Hit rate of the full screen: of about 220,000 compounds, about 16,000 (7.3%) were called active. The inconclusive results got no clear call from the source; some entries with a clear call stand among them for comparison. The call rests on the fitted dose curve; in most records, active means well fitted inhibition curve with a large enough effect (not every such curve was filed as active); inconclusive means small, poorly fitted or top-dose-only effect, or another doubt; inactive means no such curve, though single readings can be large or run the other way. No potency is given beside an inconclusive call; the fits are too rough.

Biological target: Aldehyde dehydrogenase 1A1 (Homo sapiens) (UniProt P00352)
Sequence of UniProt P00352 (P00352 whole entry, looked up): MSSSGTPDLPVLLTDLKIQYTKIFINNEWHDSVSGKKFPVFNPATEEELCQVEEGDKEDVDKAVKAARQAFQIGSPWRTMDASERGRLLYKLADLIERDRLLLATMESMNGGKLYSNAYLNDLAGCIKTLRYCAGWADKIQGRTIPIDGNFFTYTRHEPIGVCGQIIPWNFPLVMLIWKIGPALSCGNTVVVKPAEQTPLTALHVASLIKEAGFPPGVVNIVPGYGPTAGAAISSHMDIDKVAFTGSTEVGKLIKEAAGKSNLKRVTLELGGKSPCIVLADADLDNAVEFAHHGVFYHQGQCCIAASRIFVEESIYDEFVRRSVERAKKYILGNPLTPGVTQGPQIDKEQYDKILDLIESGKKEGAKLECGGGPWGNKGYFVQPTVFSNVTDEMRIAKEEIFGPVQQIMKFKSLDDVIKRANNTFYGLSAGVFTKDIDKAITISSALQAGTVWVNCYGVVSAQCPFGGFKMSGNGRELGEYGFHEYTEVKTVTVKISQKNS
Test: qHTS Assay for Inhibitors of Aldehyde Dehydrogenase 1 (ALDH1A1)
Conditions: Purified ALDH1A1, NADH fluorescence, propionaldehyde substrate; series mostly up to 75.3 µM
Potency means the concentration at half of the fitted maximal effect; tags describe the fitted curve by direction and shape.

SMILES | Potency
CCOC(=O)COn1c(=O)c(-c2ccco2)[n+]([O-])c2ccccc21 | inactive
COc1ccc(C2CCCN2C(=S)Nc2cccc(Cl)c2C)cc1OC (stereo unspecified) | inconclusive [inhibitor, single point]
COC(=O)c1c(NC(=O)C2Cc3ccccc3C(=O)O2)sc2c1CCCC2 (stereo unspecified) | inactive
CCCNC(=O)NNC(=O)c1ccc(F)cc1 | inactive
O=C1C2CCC(C2)[C@@H]2CCCCN12 (stereo partly specified) | inconclusive [inhibitor, full curve, poor fit]
Cc1csc(NC(=O)C(F)(F)F)n1 | inactive
Nn1cnnc1SC1CCCCC1NS(=O)(=O)c1ccccc1 (stereo unspecified) | active: 10 µM
O=C(Nc1nc2nc(-c3ccccc3)cc(-c3ccccc3)n2n1)c1ccco1 | inconclusive [inhibitor, partial curve]
Cc1ccc(CCNC(=O)c2coc3nc4ccccc4nc23)cc1 | inconclusive [inhibitor, partial curve]
O=S(=O)(c1ccc(Br)s1)N1CCN(c2ccnc3cc(Cl)ccc23)CC1 | inconclusive [inhibitor, single point]
CCOC(=O)C1=C(O)/C(=C/c2ccc(OCC(=O)O)c(OCC)c2)SC1=Nc1ccc(C)cc1 | inconclusive [inhibitor, single point]
O=C(NCc1ccccc1)C(=O)NCC1OCCN1S(=O)(=O)c1cccs1 (stereo unspecified) | inconclusive [inhibitor, single point]
O=C(CC(c1ccccc1)c1cc(Br)ccc1O)N1CCCC1 (stereo unspecified) | inactive
O=C(COc1ccc(/C=C\[N+](=O)[O-])cc1)N1CCOCC1 | active: 14.1 µM
COc1ccc(Oc2ncc3nc(CCc4ccccc4)c(=O)n(CCC#N)c3n2)cc1 | inconclusive [inhibitor, partial curve]
Cn1cccc1C(=O)N1CCC2(CCCN(c3ccccn3)C2)CC1 | inconclusive [inhibitor, single point]
CC(C)C1C(C#N)=C(N)Oc2n[nH]c(-c3ccccc3)c21 (stereo unspecified) | inactive
Cc1nnc(SCC(=O)NC(C)(C)C)n1NCc1c(F)cccc1Cl | inactive
CC(C)n1nc(C(=O)OCn2nnc3ccccc3c2=O)c2ccccc2c1=O | inactive
CN(C)c1cccc(C(=O)NCC2CCCO2)c1 (stereo unspecified) | inconclusive [inhibitor, single point]
CC(C(=O)Nc1ccc2c(c1)OCO2)N1CCN(C)CC1 (stereo unspecified) | inconclusive [inhibitor, single point]
Cc1cccc(C)c1NC(=S)N(Cc1ccco1)C1CCN(C(C)C)CC1 | inactive
N#Cc1cccc(-c2nc(Nc3ccccc3)c3ccccc3n2)c1 | inconclusive [inhibitor, single point]
CCC1Oc2ccccc2N(CC(=O)NCCN2CCc3ccccc3C2)C1=O (stereo unspecified) | inconclusive [inhibitor, single point]
Cc1ccc(S(=O)(=O)NCC(=O)N(CCc2ccccc2)CC(=O)NCc2ccco2)cc1 | active: 28.2 µM
CC(C)c1ccc(O)c(NC(=S)NC(=O)c2cccnc2)c1 | inconclusive [inhibitor, partial curve]

SMILES | Potency
c1ccc2[nH]c(-c3cscn3)nc2c1 | inactive
O=C(O)CN(c1ccc2c(c1)OCCO2)S(=O)(=O)c1ccccc1 | inactive
CCOc1ccc2c(c1)c1nnc(SCC3CCCO3)nc1n2C (stereo unspecified) | inconclusive [inhibitor, partial curve]
COc1ccc2[nH]cc(CCNc3ncnc4ccc(-c5ccc(C(=O)N(C)C)cc5)cc34)c2c1 | active: 25.1 µM
COc1ccc2cc(CN(Cc3ccco3)C(=S)NCC3CCCO3)c(=O)[nH]c2c1 (stereo unspecified) | inconclusive [inhibitor, partial curve]
O=C(NC1CCN(C(=O)N2c3ccccc3Sc3ccccc32)CC1)c1ccccc1Cl | inconclusive [inhibitor, single point]
C=CCO/N=C(/C)c1ccc(Oc2cnccn2)cc1 | inactive
C=CCNC(=O)c1ccc(-c2nc(-c3ccc(Cl)c(Cl)c3)cs2)cc1 | inactive
Cn1cc([N+](=O)[O-])c(C(=O)N/N=C/c2cc3c(cc2Br)OCO3)n1 | inconclusive [inhibitor, single point]
CN(CC(=O)N1CC=C(c2ccccc2)CC1)S(=O)(=O)c1ccc2c(c1)c(=O)n(C)c(=O)n2C | inconclusive [inhibitor, single point]
CCOC(=O)c1sc(NC(=O)C2CCC2)cc1C | inconclusive [inhibitor, single point]
CCCNC(=O)CSCc1nc(-c2ccc(SC)cc2)oc1C | inactive
CSc1nc(C)cc(Oc2ccc(=O)[nH]n2)n1 | inconclusive [inhibitor, single point]
Cc1[nH]n(-c2ccc(Cl)c(Cl)c2)c(=O)c1CCO | inconclusive [inhibitor, single point]
Cc1cc([N+](=O)[O-])cc2c1NC(=O)C2(O)N1CCOCC1 (stereo unspecified) | inconclusive [inhibitor, single point]
C#CC[N+](C)(C)CCCCCCCCCC | inactive
O=C(Nc1ccc(OCC(=O)N2CCC(Cc3ccccc3)CC2)cc1)c1ccco1 | active: 10 µM
COc1ccc(/C=C/C2=NC(=C\N(C)C)/C(=O)O2)cc1 | inconclusive [inhibitor, partial curve]
Cc1cc(C)n2ncc(S(=O)(=O)c3ccccc3)c2n1 | inconclusive [inhibitor, single point]
CCn1ccc(C(=O)NC2=NCCS2)n1 | inconclusive [inhibitor, single point]
CCn1c(SCC(=O)Nc2ccc(C)cc2)nc2nc3c(cc2c1=O)COC(C)(C)C3 | inconclusive [inhibitor, partial curve]
CCOC(=O)c1ccc(N2C(=O)CC(N(Cc3ccc4c(c3)OCO4)C(=O)Nc3ccccc3)C2=O)cc1 (stereo unspecified) | active: 12.6 µM
O=C(/C=C/c1cccc(Cl)c1)N1CCC(Cc2ccccc2)CC1 | inconclusive [inhibitor, single point]
CC12C=CC(=O)C=C1[C@@H](F)CC1C2C(O)CC2(C)C1CC[C@]2(O)C(=O)CO (stereo partly specified) | inactive
CC(C)N1CCN(Cc2ccc3c(c2)Cc2ccccc2-3)CC1CCO (stereo unspecified) | inactive
COc1ccc(/C=N/NC(=O)c2ccc(O)cc2)cc1CN1CCCc2ccccc21 | inactive

SMILES | Potency
Fc1ccc(-n2c(Cc3ccccc3)nnc2SCc2nc(-c3cccs3)no2)cc1 | active: 14.1 µM
CC(C)C(=O)NCCc1c[nH]c2ccccc12 | inactive
O=C(CN1C(=O)c2ccccc2S1(=O)=O)NCc1ccco1 | inactive
Cc1ccccc1N(Cc1ccccc1F)S(C)(=O)=O | inconclusive [inhibitor, single point]
CCOC(=O)c1sc(=NC(=O)C2CC2)n(C)c1C | inconclusive [inhibitor, single point]
C/C(=N\NC(=O)CC1(C)OCCO1)c1cccs1 | inactive
CC(=O)Nc1ccccc1C(=O)N1CCc2ccccc21 | inconclusive [inhibitor, single point]
COc1cccc(CNC(=O)CC2C(=O)NCCN2Cc2ccoc2)c1OC (stereo unspecified) | inconclusive [inhibitor, single point]
O=C(c1ccccc1)N(C1=NCCCCS1)c1ccccc1 | inactive
CC(NS(=O)(=O)c1ccc(Cl)c(Cl)c1)C(=O)OCC(=O)Nc1ccc2c(c1)OCO2 (stereo unspecified) | inconclusive [inhibitor, single point]
Cc1ccn2cc(-c3cccc(NC(=O)c4ccccc4)c3)nc2c1 | inconclusive [inhibitor, single point]
Cc1ccc(C(=O)Nc2ncc(Cc3ccc(F)cc3)s2)o1 | inconclusive [inhibitor, single point]
Cc1ccc(S(=O)(=O)/N=C2/NC(=O)/C(=C/c3ccc(Br)o3)S2)cc1 | inactive
Cc1cc(C)c(C#N)c(N2CCCC2)n1 | inconclusive [inhibitor, partial curve]
COCc1[nH]nc2c1C(c1ccsc1)C(C#N)=C(N)O2 (stereo unspecified) | inconclusive [inhibitor, single point]
O=C(Nc1ccc2c(c1)C(=O)N(C1CCCCC1)C2=O)C1CCCO1 (stereo unspecified) | inconclusive [inhibitor, partial curve]
CCc1nnc(NC(=O)CN2C(=O)c3ccccc3S2(=O)=O)s1 | inactive
OC(CN1c2ccccc2Sc2ccccc21)Cn1nnc2ccccc21 (stereo unspecified) | inconclusive [inhibitor, partial curve]
COc1cc(S(=O)(=O)Nc2c(C)cc(C)cc2C)ccc1Cl | inactive
COc1cc(S(=O)(=O)NC2CCCCC2)ccc1F | inconclusive [inhibitor, full curve]
CCOC(=O)c1c(NC(=O)CSc2nnc3ccccn23)sc2c1CCC2 | inconclusive [inhibitor, single point]
O=C(O)C1C2C=CC(O2)C1C(=O)NCCC1=CCCCC1 (stereo unspecified) | inconclusive [inhibitor, single point]
O=C(/C=C/c1ccc2c(c1)OCO2)N1CCN(c2n[nH]c(=O)[nH]c2=O)CC1 | inconclusive [inhibitor, partial curve]
O=S(=O)(c1ccccc1)N1CCC2(CC1)CN(Cc1ccccc1)C2 | inactive
